Experimental data published in the supplement of paper PMC4967469.
By IC50 is meant the dose at which the fit gives 50% viability; where the fit passes the top or lowest dose, that dose stands as a limit. For AUC the same curve is integrated over the 256-fold range of doses and scaled to a fraction; it is 1 without any effect and falls as sensitivity rises. For part of these data: A top dose marked as inferred is not printed in the source and was worked back from the curve model. For part of these data: An entry number marks a drug with two screens in the source, which often give different values.

Experiments:
Assay in all cases: Viability of human cancer cell lines after 72 h of drug (GDSC screen)
CUDC-101 = compound: C#Cc1cccc(Nc2ncnc3cc(OC)c(OCCCCCCC(=O)NO)cc23)c1 [CUDC-101]; settings: top dose 5.12 µM; top dose inferred
Protocol: (§1)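 Human cancer cell lines in 384-well plates, medium with 10% serum, drug for 72 h over a 256-fold dose range (nine 2-fold or five 4-fold steps up to the top dose). Adherent lines were fixed and stained with the nucleic acid dye Syto60, suspension lines read with resazurin; signal relative to control wells, capped at 0 and 100%. One two-parameter sigmoid per drug and line, fitted in a mixed model over all curves with the slope shared within a line.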

AC220 = compound: CC(C)(C)c1cc(NC(=O)Nc2ccc(-c3cn4c(n3)sc3cc(OCCN5CCOCC5)ccc34)cc2)no1 [AC220]; settings: top dose 1.024 µM; top dose inferred
Protocol: as §1

RDEA119 = compound: COc1cc(F)c(F)c(Nc2ccc(I)cc2F)c1NS(=O)(=O)C1(C[C@H](O)CO)CC1 [RDEA119]; settings: top dose 5 µM, top dose inferred
Protocol: as §1

JNK-9L = compound: Fc1cc(-c2ccnc(Nc3ccc(-n4cnc(N5CCOCC5)n4)cc3)n2)cc(N2CCOCC2)c1 [JNK-9L]; settings: top dose 5.12 µM; top dose inferred
Protocol: as §1

OSU-03012 = compound: NCC(=O)Nc1ccc(-n2nc(C(F)(F)F)cc2-c2ccc3c(ccc4ccccc43)c2)cc1 [OSU-03012]; settings: top dose 16 µM; top dose inferred
Protocol: as §1

5-Fluorouracil = compound: O=c1[nH]cc(F)c(=O)[nH]1 [5-Fluorouracil]; settings: top dose 32 µM; top dose inferred
Protocol: as §1

QS11 = compound: OC[C@H](Cc1ccccc1)Nc1nc(Oc2ccc3c(c2)CCC3)nc2c1ncn2Cc1ccc(-c2ccccc2)cc1 [QS11]; settings: top dose 10.24 µM
Protocol: as §1

| Cell Line | AUC (CUDC-101) | IC50 (CUDC-101) | AUC (AC220) | IC50 (AC220) | AUC (RDEA119; screen: GDSC drug entry 1014) | IC50 (RDEA119; screen: GDSC drug entry 1014) | AUC (RDEA119; screen: GDSC drug entry 1526) | IC50 (RDEA119; screen: GDSC drug entry 1526) | AUC (JNK-9L) | IC50 (JNK-9L) | AUC (OSU-03012) | IC50 (OSU-03012) | AUC (5-Fluorouracil) | IC50 (5-Fluorouracil) | AUC (QS11) | IC50 (QS11) |
| --- | --- | --- | --- | --- | --- | --- | --- | --- | --- | --- | --- | --- | --- | --- | --- | --- |
| HT-1197 (bladder, adherent) | 0.791 | 2780 nM | 0.982 | > 1020 nM | 0.93 | > 5000 nM | 0.841 | 4460 nM | 0.591 | 597 nM | 0.771 | 7280 nM | 0.963 | > 32000 nM | 0.975 | > 10200 nM |
| HT-1376 (bladder, adherent) | 0.92 | > 5120 nM | 0.985 | > 1020 nM | 0.808 | 3170 nM | 0.874 | > 5000 nM | 0.62 | 729 nM | 0.745 | 5820 nM | 0.985 | > 32000 nM | 0.882 | > 10200 nM |
| HTC-C3 (thyroid, adherent) | 0.688 | 1150 nM | 0.978 | > 1020 nM |  |  | 0.466 | 250 nM | 0.663 | 962 nM | 0.778 | 7270 nM | 0.895 | > 32000 nM | 0.948 | > 10200 nM |
| HUTU-80 (digestive system, adherent) | 0.374 | 154 nM | 0.99 | > 1020 nM | 0.764 | 1530 nM | 0.896 | 4300 nM | 0.664 | 834 nM | 0.344 | 402 nM | 0.677 | 5660 nM | 0.634 | 1390 nM |
| Hep 3B2_1-7 (liver, adherent) | 0.652 | 842 nM | 0.987 | > 1020 nM | 0.716 | 1280 nM | 0.78 | 2050 nM | 0.597 | 589 nM | 0.57 | 1560 nM | 0.902 | > 32000 nM | 0.751 | 3360 nM |
| Hs633T (fibrosarcoma, adherent) | 0.48 | 285 nM | 0.992 | > 1020 nM | 0.489 | 294 nM | 0.645 | 725 nM | 0.475 | 277 nM | 0.494 | 967 nM | 0.678 | 5660 nM | 0.742 | 2680 nM |
| Hs683 (glioma, adherent) | 0.87 | 4850 nM | 0.984 | > 1020 nM | 0.868 | 4660 nM | 0.916 | > 5000 nM | 0.637 | 768 nM | 0.784 | 6900 nM | 0.98 | > 32000 nM | 0.903 | > 10200 nM |
| Hs939-T (melanoma, adherent) | 0.747 | 1780 nM | 0.986 | > 1020 nM | 0.593 | 578 nM | 0.635 | 768 nM | 0.558 | 468 nM | 0.846 | 13400 nM | 0.974 | > 32000 nM | 0.908 | > 10200 nM |
| Hs940-T (melanoma, adherent) | 0.657 | 961 nM | 0.949 | > 1020 nM |  |  | 0.921 | > 5000 nM | 0.358 | 119 nM | 0.638 | 2620 nM | 0.974 | > 32000 nM | 0.914 | > 10200 nM |
| Hs-445 (Hodgkin lymphoma, suspension) | 0.39 | 164 nM | 0.988 | > 1020 nM |  |  | 0.904 | > 5000 nM | 0.619 | 661 nM | 0.829 | 8930 nM | 0.667 | 5610 nM | 0.989 | > 10200 nM |
| HuCCT1 (biliary tract, adherent) | 0.565 | 492 nM | 0.982 | > 1020 nM | 0.638 | 786 nM | 0.58 | 533 nM | 0.573 | 518 nM | 0.679 | 3370 nM | 0.653 | 5610 nM | 0.9 | > 10200 nM |
| HuH-7 (liver, adherent) | 0.525 | 374 nM | 0.987 | > 1020 nM | 0.751 | 1650 nM | 0.801 | 2420 nM | 0.565 | 480 nM | 0.839 | 10900 nM | 0.983 | > 32000 nM | 0.964 | > 10200 nM |
| HuO9 (osteosarcoma, adherent) | 0.768 | 2130 nM | 0.824 | 700 nM | 0.945 | > 5000 nM | 0.959 | > 5000 nM | 0.56 | 475 nM | 0.947 | > 16000 nM | 0.972 | > 32000 nM | 0.984 | > 10200 nM |
| HuO-3N1 (osteosarcoma, adherent) | 0.855 | > 5120 nM | 0.944 | > 1020 nM | 0.967 | > 5000 nM | 0.936 | > 5000 nM | 0.744 | 2040 nM | 0.866 | > 16000 nM | 0.924 | > 32000 nM | 0.982 | > 10200 nM |
| HuP-T3 (pancreas, adherent) | 0.55 | 451 nM | 0.975 | > 1020 nM | 0.596 | 609 nM |  |  | 0.702 | 1360 nM | 0.818 | 11700 nM | 0.723 | 10000 nM | 0.93 | > 10200 nM |
| HuP-T4 (pancreas, adherent) | 0.427 | 200 nM | 0.971 | > 1020 nM | 0.505 | 322 nM |  |  | 0.813 | 2980 nM | 0.641 | 2520 nM | 0.486 | 1830 nM | 0.835 | 7350 nM |
| IA-LM (large cell lung carcinoma, adherent) | 0.779 | 2360 nM | 0.984 | > 1020 nM | 0.837 | 3940 nM | 0.932 | > 5000 nM | 0.578 | 537 nM | 0.529 | 1210 nM | 0.851 | 29300 nM | 0.804 | 5860 nM |
| IGR-1 (melanoma, adherent) | 0.298 | 93.9 nM | 0.987 | > 1020 nM | 0.844 | 2960 nM |  |  | 0.475 | 276 nM | 0.64 | 2310 nM | 0.754 | 9630 nM | 0.861 | 7020 nM |
